For 57 molecules, survival results are on record in PubChem BioAssay AID463173 (ICCB-Longwood Screening Facility, Harvard Medical School, 2010).

In all, about 52,000 compounds went through this assay and about 1,700 (3.3%) were called active. Rule as the data show it: active = survival mostly below about 52% (no sharp cut-off); inactive = mostly above about 56%. The list shows a part of the results.

The assay concerns Wild type. The assay is described as follows: S. aureus survival, RN4220 and DeltatarO strains – OD600, teichoic acid synthesis inhibitors, primary screen (AID 463173). Conditions: S. aureus RN4220 wild type/DeltatarO growth, OD600, 18 h, hits give low values, screened at 18.75 µg/mL (by protocol).
With `CC(C)(C)OC(=O)N1CCc2nc(N3CCN(c4ncccn4)CC3)ncc2C1`, the survival was inactive: 85%.

As to `COc1ccc2cc(C#N)c(N3CCN(Cc4nnnn4CCC(C)C)CC3)nc2c1`, the survival is inactive: 106%.

As to `Cn1c(=O)c2c(nc(SCC(=O)Nc3ccc(F)cc3)n2Cc2ccccc2F)n(C)c1=O`, the survival was inactive: 123%.

In the case of `COc1ccc(C(CNC(=O)c2ccc(F)cc2)N2CCCC2)cc1` (configuration not stated), the survival is inactive: 105%.

With `CCCSc1ncc(Cl)c(C(=O)Nc2c(C(=O)c3ccc(C)cc3)oc3ccccc23)n1`, the survival was inactive: 84%.

For the molecule `CCC(=O)N1c2ccc(S(=O)(=O)CCC(=O)N3CCN(c4cc(C)ccc4C)CC3)cc2CC1C` (configuration not stated), the survival was inactive: 82%.

For the molecule `CCOc1ccc2nc(NC(=O)c3nc(SCc4ccccc4C)ncc3Cl)sc2c1`, the survival is inactive: 110%.

With `Cc1cc(C)cc(NC(=O)N2CCC(CN3CCCCCC3)CC2)c1`, the survival is inactive: 57%.

In the case of `O=C(NC1CC(=O)N(c2ccccc2)C1)C(c1ccccc1)c1ccccc1` (configuration not stated), the survival was inactive: 69%.

In the case of `c1ccc2c(c1)CN1CCCC1=N2`, the survival was inactive: 99%.

Take `COC(=O)c1c(NC(=O)/C(C#N)=C/c2ccc(OC)cc2)sc2c1CCC2`: the survival was inactive: 145%.

Turning to `O=C(CSc1nc2nccnc2c(=O)n1CCc1c[nH]c2ccccc12)Nc1ccccc1`, the survival was inactive: 85%.

Consider `C=CCN1CCN(Cc2nnnn2Cc2ccc(OC)cc2)CC1`, for which the survival is inactive: 113%.

With `COc1ccc(S(=O)(=O)N2CCC(N3CCN(Cc4ccc(F)cc4)C(=O)C3=O)CC2)cc1`, the survival was inactive: 70%.

Take `Cc1c(CCNC(=O)c2ccc(Br)o2)sc2nc(-c3ccc(Cl)cc3)nn12`: the survival was inactive: 84%.

Consider `Cc1ccc(C(=O)N2CCCCC2)cc1NC(=O)c1nsc2ccccc12`, for which the survival was active: -6%.

In the case of `CCc1ccc(C(=O)c2cn(CC(=O)Nc3cc(OC)ccc3OC)c3nc(C)ccc3c2=O)cc1`, the survival was inactive: 124%.

For the molecule `O=C(CC1S/C(=N\N=C2CCCCC2)NC1=O)Nc1ccc(F)cc1` (configuration not stated), the survival is inactive: 113%.

Regarding `O=C(Nc1ccccc1C(F)(F)F)C1CCN(S(=O)(=O)Cc2ccccc2)CC1`, the survival is inactive: 85%.

On to `CN(C)CCNCc1cc2c(-c3cccc(F)c3)nn(-c3ccccc3)c2[nH]c1=O`, for which the survival was inactive: 128%.

As to `Cc1cc2nsnc2c(S(=O)(=O)NCC(=O)O)c1C`, the survival is inactive: 99%.

Take `Cc1oc2cc3oc(=O)c(CC(=O)NCc4ccccc4)c(C)c3cc2c1C`: the survival is inactive: 84%.

On to `Cc1ccc(C)c(NC(=O)c2ccc3c(c2)CCCN3S(C)(=O)=O)c1`, for which the survival is inactive: 102%.

Regarding `COc1cccc(NC(=O)c2oc3ccccc3c2NC(=O)c2ccc(F)c(F)c2)c1`, the survival is inactive: 86%.

For the molecule `Cc1ccc(-n2c(=O)c3sc4ccccc4c3n(C)c2=O)cc1F`, the survival was inactive: 83%.

Consider `CCOc1ccc(NC(=O)CSc2ncc3c(n2)-c2ccccc2N(C)S3(=O)=O)cc1`, for which the survival is inactive: 78%.

With `Clc1ccccc1-c1nc(Nc2ccccc2)nc2ccc(Br)cc12`, the survival is inactive: 31%.

Consider `Cc1ccc(NC(=O)N2CCC(n3c(C)nc4cccnc43)CC2)c(Cl)c1`, for which the survival is inactive: 71%.

`COCCNC(=O)CCC(=O)NNc1nc2ccccc2c2nc(-c3ccccc3)nn12`: the survival is inactive: 76%.

`Cc1ccc(NC(=O)c2cc(S(=O)(=O)N3CCOCC3)c(Cl)cc2Cl)cc1`: the survival was inactive: 69%.

As to `Cc1cc(C)cc(NC(=O)C2CCN(S(=O)(=O)c3cccc4nonc34)CC2)c1`, the survival was inactive: 59%.

As for `Cc1nc2sccn2c1-c1csc(Nc2cccc(Cl)c2C)n1`, the survival was inactive: 122%.

In the case of `COc1ccc(CNC(=O)Nc2cn(CC(C)C)c(=O)c3ccccc23)c(OC)c1`, the survival is inactive: 89%.

Consider `CCc1ccc(CNC(=O)c2ccc(CSc3nc4ccncc4n3Cc3ccccc3)cc2)cc1`, for which the survival is inactive: 90%.

Consider `CCC(Oc1ccccc1)C(=O)Nc1nnc(S(=O)(=O)Nc2ccccc2)s1` (configuration not stated), for which the survival was inactive: 40%.

In the case of `CCn1c2ccccc2c2cc(NC(=O)COC)ccc21`, the survival is inactive: 108%.

As to `Cc1noc(-c2ccccc2OCC(=O)Nc2cccc([N+](=O)[O-])c2)n1`, the survival was inactive: 100%.

Take `COC(=O)CCc1sc(Nc2ccc(OC)cc2)nc1-c1ccc(OC)cc1`: the survival is inactive: 77%.

As to `Cc1ccccc1NC(=O)CC1C(=O)NCCN1C(=O)c1cccc(Cl)c1` (configuration not stated), the survival is inactive: 79%.

For the molecule `CC(=O)c1ccc(N2CCN(C(=O)NCc3noc4ccc(C)cc34)CC2)cc1`, the survival was inactive: 74%.

With `CCNC(=O)CCSc1nnc(-c2ccccc2C)o1`, the survival was inactive: 99%.

As for `Cc1ccc(N(C(=O)Cn2nnc3ccccc32)C(C(=O)NCc2ccco2)c2cccnc2)cc1C` (configuration not stated), the survival is inactive: 103%.

On to `Cc1ccc(S(=O)(=O)NCc2nc3nc(C)cc(C)n3n2)c(C)c1`, for which the survival is inactive: 126%.

With `CCOC(=O)C1CCCN(S(=O)(=O)c2ccc3[nH]c(=O)ccc3c2)C1` (configuration not stated), the survival is inactive: 63%.

In the case of `COc1ccc(N2CCN(C(=O)CCS(=O)(=O)c3cc4c(cc3Cl)NC(=O)CO4)CC2)cc1`, the survival is inactive: 85%.

For the molecule `COc1ccc(-c2nnn3c2nc(N2CCCC(C)C2)c2ccccc23)cc1` (configuration not stated), the survival is active: 0%.

Regarding `Cc1ccc(C)c(N(C)C(=O)C2CCN(S(=O)(=O)c3cccc4nsnc34)CC2)c1`, the survival is inactive: 117%.

Regarding `CC(=O)c1cc(C(=O)Nc2cccc(C)c2)c2ccccn12`, the survival was inactive: 63%.

For the molecule `CCN1c2ccccc2-c2nc(SCC(=O)Nc3ccc(C)c(Cl)c3)ncc2S1(=O)=O`, the survival is inactive: 19%.

Take `CCOC(=O)c1ccccc1NC(=O)CSc1nc2ncccc2[nH]1`: the survival is inactive: 70%.

With `Cc1ccc(S(=O)(=O)c2[nH]c(-c3ccccc3)nc2SCC(=O)O)cc1`, the survival is inactive: 93%.

With `COc1ccc(N2CCN(CC(O)COc3ccc(C(C)(C)C)cc3)CC2)cc1` (configuration not stated), the survival is inactive: 87%.

Take `CCOC(=O)c1ccc(NC(=O)CC2C(=O)N(c3ccccc3)C(=O)N2Cc2cccs2)cc1` (configuration not stated): the survival is inactive: 76%.

In the case of `Cc1ccc2c(CNCCc3ccc(Cl)cc3)c(C(=O)O)n(Cc3ccc(F)cc3)c2c1`, the survival is active: 4%.

With `CCOc1ccc(CNC(=O)c2ccc3nc(Cc4ccc(OC)cc4)oc3c2)cc1OC`, the survival was inactive: 66%.

Consider `O=c1c2sc3ccccc3c2n(Cc2ccccc2)c(=O)n1Cc1ccccc1`, for which the survival was inactive: 129%.

With `Cc1ccc(Cl)cc1NC(=O)c1ccc(-c2nc(CSc3ccccc3)c(C)o2)cc1`, the survival was inactive: 55%.
